Measurements published in article PMC6212790.
The other results are listed elsewhere or left out. At the low end of the ranking the order means little.

target: T1, GST-Rok-C97-191 (UniProt O34857); experiment: protein binding microarray; conditions: Rok is a gene silencer of Bacillus subtilis; high values mean tight binding; most listed sequences are background and not binding sites; double strand, one strand shown;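 also: rank score from −0.5 (least bound) to 0.5 (best bound)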
T1 sequence: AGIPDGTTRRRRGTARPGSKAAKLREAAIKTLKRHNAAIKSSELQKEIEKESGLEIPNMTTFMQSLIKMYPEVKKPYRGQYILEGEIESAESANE

| Sequence | binding signal |
| --- | --- |
| ACCACTCT | -0.0505 E-score |
| GCATCCCA | -0.221 E-score |
| AGCCCAGG | -0.211 E-score |
| GCCGCCCC | -0.365 E-score |
| CAAAAGGC | -0.159 E-score |
| GCTATGCA | 0.103 E-score |
| CCCACTAA | 0.0279 E-score |
| AAGGAAAA | -0.134 E-score |
| ACCTCTAC | 0.124 E-score |
| GCCAAGGC | -0.387 E-score |
| CATAAACG | 0.00369 E-score |
| ATTGTGAC | -0.0654 E-score |
| ACAAATAA | 0.246 E-score |
| CCTATCAA | 0.00333 E-score |
| GATGTCGC | -0.118 E-score |
| GGGTCAAC | -0.214 E-score |
| CTACTCCA | 0.141 E-score |
| CGACGAGC | -0.101 E-score |
| AAGAGCTT | -0.0675 E-score |
| CGTGGCAC | -0.208 E-score |
| ATGTCTAC | -0.0174 E-score |
| CATATCTC | 0.0436 E-score |
| CCCGCCAG | -0.301 E-score |
| AGAGGGGG | -0.305 E-score |

| Sequence | binding signal |
| --- | --- |
| GATCCCTA | 0.0107 E-score |
| ATATGCAT | 0.151 E-score |
| ATGAGAGC | -0.0638 E-score |
| ACCATCGG | 0.0593 E-score |
| ACTACGAT | 0.362 E-score |
| GGACAGCC | -0.25 E-score |
| GAAGAATA | 0.183 E-score |
| ACTGTGAC | 0.0996 E-score |
| ACAAGACG | -0.0474 E-score |
| ACGCCGTA | -0.129 E-score |
| AATATGGT | 0.208 E-score |
| AGTATGTA | 0.294 E-score |
| TATTCAAA | 0.0841 E-score |
| CGACTCCA | -0.0428 E-score |
| ACCGGAAT | 0.161 E-score |
| CCCGGAGA | -0.132 E-score |
| GCTATCTA | 0.333 E-score |
| TAAACAGA | -0.154 E-score |
| AGAGTCGA | -0.19 E-score |
| CCTCGGGC | -0.153 E-score |
| TACGGTCA | 0.152 E-score |
| AGTCGTAC | 0.108 E-score |
| ACCGGTGC | -0.35 E-score |
| GCGTACGA | 0.0687 E-score |

| Sequence | binding signal |
| --- | --- |
| ACTATTGG | 0.194 E-score |
| CGGGCGCC | -0.267 E-score |
| TAACATAA | 0.0145 E-score |
| CCAGCAAA | -0.315 E-score |
| CCTTATCA | 0.0932 E-score |
| CACCAATA | 0.124 E-score |
| CCACACTA | 0.248 E-score |
| CCTAGCAG | -0.174 E-score |
| ATAATCTA | 0.289 E-score |
| GTACAACA | 0.0783 E-score |
| CAGCATTA | 0.0741 E-score |
| ATTTCACC | 0.1 E-score |
| GCAGGAAC | -0.0927 E-score |
| AAAGTGTC | -0.00313 E-score |
| ACGTTACT | 0.0811 E-score |
| CTATACTA | 0.301 E-score |
| TATGAACA | 0.0539 E-score |
| CGCGGCTC | -0.318 E-score |
| CCTGTTCG | -0.0726 E-score |
| AAGAGATG | 0.0244 E-score |
| GGCAAGCC | -0.208 E-score |
| GGTCGCTA | -0.0447 E-score |
| GGTTACAA | 0.162 E-score |
| AGCTTAAA | 0.065 E-score |

| Sequence | binding signal |
| --- | --- |
| GACGCAGA | -0.227 E-score |
| ACAACACC | -0.0544 E-score |
| CACTGTTA | 0.19 E-score |
| CCCTGTCG | -0.114 E-score |
| GACCGCAA | 0.0465 E-score |
| CATACCAA | 0.212 E-score |
| CCATGCCA | -0.0511 E-score |
| ACAAGAGC | -0.183 E-score |
| CTATGTTA | 0.256 E-score |
| GACTAGAC | -0.197 E-score |
| AGTCATCC | -0.118 E-score |
| CAGTGTGG | -0.258 E-score |
| GATGCTTA | 0.0551 E-score |
| CAGTGGCC | -0.131 E-score |
| AGGCGGGA | -0.114 E-score |
| CGGATCTC | -0.0038 E-score |
| CGCCCTCC | -0.427 E-score |
| CAAAGTAA | 0.219 E-score |
| ACCGGCCT | -0.0364 E-score |
| CCTAATTA | 0.28 E-score |
| CCCCCCCA | -0.302 E-score |
| CTGGCCCC | -0.197 E-score |
